The source of these data is PMC6030701 (EMBO Reports, 2018).

This data set concerns the molecule itself. The data set can be described thus: SEC. For orientation: SEC sorts molecules by how far they enter the pores of the column.

B1: MSP domain and coiled‐coil of VAP‐B [[…]], wild type, C‐terminal 6His (domain or fragment)
chain: not shown
As to B1, the “stoichiometry N” value is 2.

In general, stoichiometry N refers to a count of units in the complex or per binding partner.
